{"source": "the supplement of paper PMC10338343", "note": "± gives the standard deviation. Only a part is listed here, and it is no random draw.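 Further: 1 nM active piRISC with 0.1 nM target library at 33 °C single turnover.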"}
{"tested_on": "MIWI (PIWIL1) piRISC loaded with piRNA #1 (30 nt)", "experiment": "pre-steady-state target cleavage rate (min^-1); MIWI and MILI are mouse PIWI proteins and EfPiwi is from a freshwater sponge; tags in brackets are library labels; higher = faster piRNA-guided slicing of the target", "conditions": "guide: piRNA #1 5'p-UGAGGUAGUAGGUUGUAUAGUAUCCAGAGG; auxiliary factor: 500 nM mouse GTSF1", "method_in_brief": "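Cleave-'n-Seq measured uncleaved targets by sequencing after a transcribed, DNA-blocked target RNA library […] was mixed with 1 nM active affinity-purified piRISC holding one synthetic guide, with or without 500 nM GTSF1 partner protein, at 33 °C in HEPES–potassium acetate buffer for 0–8 or 0–960 min. Counts were normalised to depth and to weakly complementary targets, three trials were pooled, and k3 was capped at 0.0001 min^-1. A burst-and-steady-state fit gave the pre-steady-state cleavage rate.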"}
{"sequence": "GGAGUGGAUACUAUUCAACCUAGUACCUCA", "pre-steady-state target cleavage rate": "0.351 ± 0.045"}
{"sequence": "GGUCUGGAUAGUAUACAACCUAGUACCUCA", "pre-steady-state target cleavage rate": "0.443 ± 0.043"}
{"sequence": "GGAGUGGAUACUUUAGAACCUACUACCUCA", "pre-steady-state target cleavage rate": "0.435 ± 0.038"}
{"sequence": "GGACUGGAUACUAUACAACCAACUACCUGA", "pre-steady-state target cleavage rate": "0.0355 ± 0.0066"}
{"sequence": "GGAGACGAUACUAUACAACCUACGUACCUCA", "pre-steady-state target cleavage rate": "0.685 ± 0.055"}
{"sequence": "CCUCUGGAUACAAUACAACCAACUACCUCA", "pre-steady-state target cleavage rate": "0.159 ± 0.021"}
{"sequence": "GGAGACCUAUGUUACAACCUACUACCUCA", "pre-steady-state target cleavage rate": "0.0172 ± 0.0071"}
{"sequence": "GGAGACCUAACUAUACAACCUACUAGCACA", "pre-steady-state target cleavage rate": "0.116 ± 0.043"}
{"sequence": "GGAGACCAUGCUAUACAACCUACUACCUCA", "pre-steady-state target cleavage rate": "1.64 ± 0.14"}
{"sequence": "GGAGACGAUACUAUACAACCUACUACCAUCA", "pre-steady-state target cleavage rate": "0.71 ± 0.064"}
{"sequence": "GGAGUGGAUUCAAUACAACCUACUACCUCA", "pre-steady-state target cleavage rate": "1.02 ± 0.071"}
{"sequence": "CCACUGGAUACUAUACAACCUACAACCUCA", "pre-steady-state target cleavage rate": "1.44 ± 0.093"}
{"sequence": "GCACUGCAUACUAUACAACCUACUACCUCA", "pre-steady-state target cleavage rate": "1.75 ± 0.11"}
{"sequence": "GGAGACCUAACUGUACAACCUACUACCUCA", "pre-steady-state target cleavage rate": "0.327 ± 0.046"}
{"sequence": "CCUCUGGAUACUAUACAACCUACUACCUAA", "pre-steady-state target cleavage rate": "1.9 ± 0.1"}
{"sequence": "GGAGAGGAUACUAUAGAACCUACAACCUCA", "pre-steady-state target cleavage rate": "0.00304 ± 0.0026"}
{"sequence": "GGACGGAUACUAUACAACCUACUACCUCA", "pre-steady-state target cleavage rate": "1.86 ± 0.11"}
{"sequence": "GGAGUGGAUUCUAUACAUCCUACUACCUCA", "pre-steady-state target cleavage rate": "1.33 ± 0.074"}
{"sequence": "GGAGACCUAUCUAUACAACCUACUACCUUCA", "pre-steady-state target cleavage rate": "0.689 ± 0.067"}
{"sequence": "GGACUGGUUACUAUACAACCUACAACCUCA", "pre-steady-state target cleavage rate": "0.275 ± 0.04"}
{"sequence": "CCUCUGGAUACUAUUCUACCUACUACCUCA", "pre-steady-state target cleavage rate": "1.23 ± 0.095"}
{"sequence": "GCUCUGGUUACUAUACUACCUACUACCUCA", "pre-steady-state target cleavage rate": "1.56 ± 0.1"}
{"sequence": "GCUCUGGUUACUAUACAACGUACUACCUCA", "pre-steady-state target cleavage rate": "1.12 ± 0.063"}
{"sequence": "GGACUGGAUACUAAUACAACCUACUACCUCA", "pre-steady-state target cleavage rate": "1.55 ± 0.13"}
